These are yes or no findings as the source states them, for the method shown. In cells and extracts the contact can be indirect. For part of these data: Tags and fused reporters may be left off the sequences shown.
What was measured:
Test in all cases: co-IP; HEK293T cells co-transfected with Flag- and HA-tagged plasmids; lysis in 50 mM Tris-HCl pH 7.5, 300 mM NaCl, 1% Triton-X, 5 mM EDTA, 10% glycerol; IP with anti-Flag antibody and Protein-G Sepharose, immunoblot with anti-HA and anti-Flag; in some panels cells treated with DMSO or ATP (5 mM) for 2 h; Fig. 6d-g shown as pairs of IPs whose antibodies the legend does not name
Flag-P2X7R(35–595) = target: T1, Flag-P2X7R(35–595) (UniProt Q99572)
T1 sequence: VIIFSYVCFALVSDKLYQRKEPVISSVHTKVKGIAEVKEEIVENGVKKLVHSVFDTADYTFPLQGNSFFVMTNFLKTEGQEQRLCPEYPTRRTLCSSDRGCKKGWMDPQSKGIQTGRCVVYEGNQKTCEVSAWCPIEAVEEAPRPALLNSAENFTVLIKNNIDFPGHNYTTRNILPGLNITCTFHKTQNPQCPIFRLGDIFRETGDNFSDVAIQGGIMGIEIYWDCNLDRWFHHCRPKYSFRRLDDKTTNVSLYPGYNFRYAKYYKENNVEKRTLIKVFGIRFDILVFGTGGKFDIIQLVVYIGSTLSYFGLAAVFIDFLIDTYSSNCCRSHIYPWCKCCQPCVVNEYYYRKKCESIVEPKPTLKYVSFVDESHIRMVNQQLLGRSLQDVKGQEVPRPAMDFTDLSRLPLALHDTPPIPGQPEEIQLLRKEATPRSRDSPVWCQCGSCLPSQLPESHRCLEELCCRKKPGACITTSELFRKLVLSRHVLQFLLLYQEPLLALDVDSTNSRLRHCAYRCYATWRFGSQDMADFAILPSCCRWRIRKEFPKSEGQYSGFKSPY

Amino acid sequences for entries named in this document (tags omitted). Residues count along the entry.
UniProt Q96P20, residues 1-93: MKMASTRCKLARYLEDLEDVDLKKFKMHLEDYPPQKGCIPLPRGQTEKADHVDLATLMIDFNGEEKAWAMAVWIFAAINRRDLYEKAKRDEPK
UniProt P49023: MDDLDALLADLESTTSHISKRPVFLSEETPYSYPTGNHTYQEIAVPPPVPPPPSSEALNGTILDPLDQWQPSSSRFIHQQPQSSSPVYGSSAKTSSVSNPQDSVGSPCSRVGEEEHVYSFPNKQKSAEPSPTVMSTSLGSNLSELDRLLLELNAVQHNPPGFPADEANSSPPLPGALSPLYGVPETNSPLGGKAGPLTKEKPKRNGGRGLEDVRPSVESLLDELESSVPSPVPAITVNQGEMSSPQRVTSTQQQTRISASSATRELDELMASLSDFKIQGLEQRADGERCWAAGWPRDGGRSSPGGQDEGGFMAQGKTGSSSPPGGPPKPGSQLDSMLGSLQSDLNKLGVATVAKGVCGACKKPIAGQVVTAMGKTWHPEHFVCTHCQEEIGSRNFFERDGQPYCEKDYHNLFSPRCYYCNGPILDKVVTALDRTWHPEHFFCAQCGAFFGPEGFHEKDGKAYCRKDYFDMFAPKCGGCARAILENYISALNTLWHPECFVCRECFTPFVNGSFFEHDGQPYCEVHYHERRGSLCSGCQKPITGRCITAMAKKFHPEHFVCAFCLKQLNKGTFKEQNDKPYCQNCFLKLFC

[1] = target: T2, Flag-USP13(301–863) (human) (UniProt Q92995)
T2 sequence: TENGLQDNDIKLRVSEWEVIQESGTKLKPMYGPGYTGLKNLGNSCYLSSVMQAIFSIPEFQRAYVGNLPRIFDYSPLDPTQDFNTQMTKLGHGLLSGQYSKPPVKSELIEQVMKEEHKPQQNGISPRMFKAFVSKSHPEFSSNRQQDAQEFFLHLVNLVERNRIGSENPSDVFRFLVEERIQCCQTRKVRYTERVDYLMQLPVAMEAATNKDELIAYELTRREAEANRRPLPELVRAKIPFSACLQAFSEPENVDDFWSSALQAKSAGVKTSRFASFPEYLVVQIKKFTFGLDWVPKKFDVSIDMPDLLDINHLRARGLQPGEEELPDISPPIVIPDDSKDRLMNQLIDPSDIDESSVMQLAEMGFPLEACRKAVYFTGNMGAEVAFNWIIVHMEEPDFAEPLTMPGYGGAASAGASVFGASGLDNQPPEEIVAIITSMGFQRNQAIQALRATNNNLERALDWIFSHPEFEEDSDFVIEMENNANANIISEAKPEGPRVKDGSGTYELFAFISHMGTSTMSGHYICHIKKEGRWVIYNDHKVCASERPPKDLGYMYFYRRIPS

Flag-PYRIN (human) = Flag-PYRIN (human) (UniProt Q96P20)

Measured: binding

HA-Paxillin (from UniProt P49023 1-591)
no binding: all assays above
